Experimental data published in ChEMBL document CHEMBL4888484, “Replenishing the malaria drug discovery pipeline: Screening and hit evaluation of the MMV Hit Generation Library 1 (HGL1) against asexual blood stage Plasmodium falciparum ,using a nano luciferase reporter read-out” (2022).
Out of some 4,800 compounds screened, about 410 (8.5%) showed an effect of 50% or more. Some of the results follow.

Test system: Plasmodium falciparum
Experiment: Confirmatory screen in NF54 pLDH assay, in single point, at 2uM, 72h
Format: functional, Erythrocyte
Conditions: timepoint 72 hour

| SMILES | % Inhibition |
| --- | --- |
| O=C(Cn1cccn1)N1CC(c2nc(-c3ncccn3)no2)C1 | 10% |
| COc1cc(=O)c(C(=O)N2CCC(C(N)=O)CC2)nn1-c1ccc(F)c(F)c1 | 13% |
| CCOc1cccc(-c2ccc3nc(-c4cccc(OC)c4)c(CCC(=O)NCCc4ccc(OC)c(OC)c4)n3c2)c1 | 1% |
| Cc1cccc(N(C)C(=O)c2cc(-c3cccc(Cl)c3)[nH]n2)c1 | 10% |
| CCC1CC(CC(=O)NS(=O)(=O)c2ccnn2C)CCO1 (centres undefined) | 0% |
| CCc1ccccc1NC(=O)c1sccc1S(=O)(=O)N1CCc2ccccc2C1 | 12% |
| CCc1cc(CC)c(-c2cc(-c3ccccc3)on2)c(CC)c1-c1cc(-c2ccccc2)on1 | 20% |
| Cc1noc2nc(C3CC3)cc(C(=O)N3CCC[C@H](C)CC3)c12 | -5% |
| O=c1[nH]nc(-c2ccc3ccccc3c2)c2conc12 | -1% |
| CC(C)Oc1cccnc1C(=O)N(C)c1cnn(C)c1 | 10% |
| CN(Cc1ccc(N2CCOCC2)cc1)S(=O)(=O)c1ccc2c(c1)OCCCO2 | 14% |
| O=C(NCCC(=O)N1CCCCCC1)c1cc(Cl)c2c(c1)OCCCO2 | 3% |
| Cc1ccc(NC(=O)C2C3NC(=O)N(c4ccccc4)C2(C)Oc2ccc(C)cc23)c(C)c1 (centres undefined) | -9% |
| O=C(c1cc(F)c(F)cc1Cl)N1CCC2CCC(C1)N2 (centres undefined) | -18% |
| COc1ccc(S(=O)(=O)N[C@H]2CO[C@@H](CN3CCC(F)(F)C3)[C@@H]2O)cc1 | 3% |
| Cc1ccc(C(=O)N(Cc2cccc(F)c2)c2ccc(CC(=O)N[C@@H](C)c3ccccc3)cc2)cc1 | 89% |
| c1ccc(Oc2ccc(-c3csc4nc5ccccc5n34)cc2)cc1 | 5% |
| Cc1ccc(NC(=O)NCc2ccccn2)nc1 | -12% |
| CC(NCC(O)Cn1c(-c2ccccc2)c(-c2ccccc2)c2ccc3ccccc3c21)c1ccccc1 (centres undefined) | 86% |
| O=C(Cn1cccn1)Nc1cccc(S(=O)(=O)N2CCCC2)c1 | -8% |
| COc1ccc(Cl)cc1CNC[C@H](C)O | 4% |
| CCC(CC)C(=O)Nc1cc(C2CC2)nn1-c1nc(-c2ccccc2)cc(=O)[nH]1 | 45% |
| CCc1ccc(NC(=O)Cc2c(C)nc3nc(-c4ccccc4C)nn3c2C)cc1 | 3% |
| CC[C@H](C)[C@H](NC(=O)c1ccc(Br)c(F)c1)C(=O)O | 1% |
| Cn1c(-c2ccc3c(c2)OCO3)cnc1NCc1cccc(Cl)c1 | 3% |

| SMILES | % Inhibition |
| --- | --- |
| N#Cc1cccc(CNCC2(N3CCOCC3)CCCCC2)c1 | -4% |
| O=C(c1cccc(C(F)(F)F)c1)c1c[nH]c(C(=O)NCc2cccnc2)c1 | -26% |
| CC1(O)CC2CCC(C1)N2C(=O)c1cc(Br)c2c(c1)OCCO2 (centres undefined) | -17% |
| N#C[C@@H](C(=O)Nc1cccnc1)c1ccc(F)cn1 | -2% |
| O=C(c1coc(-c2ccccc2)n1)N1CCc2cc(Br)ccc21 | 1% |
| CC(C)[C@H](NC(=O)Nc1cc(Cl)ccc1F)C(N)=O | -8% |
| CCOC(=O)NCC#CCOc1ccccc1C(N)=O | -18% |
| Cc1cc2n(n1)C(C(F)(F)F)CCN2C(=O)C(C)N1C(=O)C2CCCCC2C1=O (centres undefined) | 4% |
| CC[C@H](C)n1ncc(C(=O)N2CCNCC2)c1C1CC1 | -8% |
| COc1ccccc1CNC(=O)c1cnn2c3c(cnc12)CCCC3 | -2% |
| CCCn1nnc(N(C(=O)c2cc(Br)cc(C)c2OC)C(=O)c2cc(Br)cc(C)c2OC)n1 | 0% |
| Cn1nc(C2CC2)c2c(C(F)F)cc(C(F)F)nc21 | 11% |
| Cc1csc(NC(=O)[C@]2(C)Oc3ccccc3NC2=O)n1 | 15% |
| O=C(Nc1ccncc1)c1nc(N2CCCC2)ncc1Br | -9% |
| Cc1ccc(CNC2CCN(C)CC2)c(OCc2ccco2)c1 | 3% |
| Cc1ccc(NC(=O)[C@H]2CN(S(=O)(=O)C3CC3)CC23CCCCC3)c(C)c1 | 10% |
| Cc1onc(N)c1S(=O)(=O)Nc1ccncc1 | -2% |
| C[C@@](CO)(NC(=O)Nc1cc(-c2ccco2)ccc1F)C1CC1 | 10% |
| Cc1cccc(C(=O)Nc2ccc(N3CCCCCC3)cc2C(=O)O)c1 | -10% |
| Cc1cc(=O)n(CC(=O)Nc2ccc(Cl)c(C(F)(F)F)c2)c(-c2ccc(F)cc2)n1 | 0% |
| O=C1COc2ccc(S(=O)(=O)N3CC[C@H]3c3ccccc3)cc2N1 | -1% |
| C[C@@H](CNS(=O)(=O)c1ccco1)N(C)S(=O)(=O)c1ccco1 | 4% |
| Cc1ccc(S(=O)(=O)Nc2ccc(Br)cc2C(=O)Nc2ccc(Oc3ccc(Br)c4ccccc34)c(Cl)c2)cc1 | 11% |
| COC(CNC(=O)OC(C)(C)C)CC(=O)NC1CC(C)CCC1C(C)C (centres undefined) | -2% |
| CC(=O)Nc1cccc(NC(=O)Cn2c(=O)n(CCc3cccs3)c(=O)c3ccccc32)c1 | 10% |

| SMILES | % Inhibition |
| --- | --- |
| CCN(CCCC(=O)c1ccc(F)cc1)CCc1ccccc1 | -9% |
| COc1cc([C@H]2CC(O)=Nc3c2c(-c2ccccc2)nn3-c2ccccc2)ccc1O | 11% |
| O=C(O)[C@H]1CC(=O)N(c2ccc3nc(-c4cccc(F)c4)oc3c2)C1 | -19% |
| O=C(Nc1ccccc1)c1cccc(CN2CCN3CCOC[C@@H]3C2)c1 | -15% |
| Cc1cccc(C)c1NC(=O)c1cc(-c2cccc3ccccc23)[nH]n1 | 11% |
| Cc1cccc(NC(=O)[C@H]2CCN(c3cn[nH]c(=O)c3)C2)c1 | 12% |
| COCc1c(Br)c(C)nc(O)c1C#N | -6% |
| O=C(Nc1ccccc1)c1c([O-])n(-c2ccccc2)n[n+]1C[C@@H](O)CN1CCCCC1 | 18% |
| Cc1cc(C)cc(-n2c(=O)c3sccc3n(CC(=O)N3CCCCC3)c2=O)c1 | -13% |
| COc1ccc(-c2cc(C(=O)N[C@H]3CCN(c4ccc(=O)[nH]n4)C3)c(C)n2C)cc1 | 58% |
| CC(NCCn1cccn1)C(=O)N1c2ccccc2CC1C (centres undefined) | -19% |
| O=C1c2ccccc2C(=O)N1Cc1cnn(CC(F)F)c1 | 12% |
| COc1ccc(-c2cc(C(F)F)nc(N3CCN(Cc4ccccn4)CC3)n2)cc1OC | -5% |
| CC(=O)N(CC[C@]1(Cc2ccccc2Cl)CCOC(C)(C)C1)Cc1ccco1 | -13% |
| CC(C)(C)OC(=O)N1CCC[C@H]1C(=O)n1ccnc1 | 3% |
| Cc1ccc(NC(=O)NC(=O)Cn2ccc(=O)c3sccc32)cc1C | 8% |
| CCNC(=O)c1ccc(-c2nc(CS(=O)(=O)c3ccccc3)c(C)o2)cc1 | -10% |
| O=C1C[C@@H](c2ccc(C(F)(F)F)cc2)c2c(O)nc(N3CCN(CCO)CC3)nc2N1 | 5% |
| CCC(C)(C)NC(=O)c1cn(CC2(O)CCN(Cc3ccccc3)CC2)nn1 | 16% |
| O=C(Nc1[nH]c(=O)ncc1F)c1cccc2ccccc12 | 72% |
| COc1ccc(NC(=O)C2=NN(CC(=O)Nc3cccc(OC)c3)C(=O)CC2)cc1 | -4% |
| Cc1cc(NC(=O)c2ccncc2)cc2c1OCCO2 | -12% |
| COc1ccc2c(NC(=O)Cc3c(C)noc3C)n[nH]c2c1 | 7% |
| N#Cc1nc2c(C#N)c(N)n(CCc3ccccc3)c2nc1C#N | 92% |
| Cc1n[nH]c(CN(C)S(=O)(=O)Cc2cccc(C(F)(F)F)c2)n1 | -12% |

| SMILES | % Inhibition |
| --- | --- |
| Cc1cc2c(cc1C)N(CC(=O)Nc1ccc(C(F)(F)F)cc1)C(=O)CC(c1cccs1)=N2 | -23% |
| CC1(C)C(c2ccccc2)=NO[C@@H]1N1CCOCC1 | 16% |
| Cc1cccc(N2CCN(C(=O)c3ccc4c(c3)C(=O)N(c3cc(C)on3)C4=O)C[C@@H]2C)c1 | 8% |
| CC1(C)Oc2ccc(S(=O)(=O)NC3CCCCC3)cc2NC1=O | -6% |
| CC(C)(C)OC(=O)N1CCN(C[C@H]2CN(c3ccc(F)cc3)C(=O)O2)CC1 | -7% |
| Cc1ccc(CN2CCN(C[C@@H](O)Cn3c4ccccc4n4c(=O)cc(C)c(C#N)c34)CC2)c(C)c1 | 96% |
| O=C(c1cc2c(s1)CCCC2)N1CCC[C@H](c2nnc3ccccn23)C1 | -13% |
| O=C(Nc1nccs1)C1C(c2ccccc2)C1(Cl)Cl (centres undefined) | -16% |
| CCn1c(=O)c(N2CCN(C(=O)Nc3cccc(C)c3C)CC2)nc2ccccc21 | 8% |
| CC(C)(C)C(=O)/C(=N\OC(=O)Nc1ccc(Cl)cc1)n1cncn1 | 0% |
| Cc1ccc(S(=O)(=O)Nc2c(S(=O)(=O)c3ccc(C)cc3)c3nc4ccccc4nc3n2CCC(C)C)cc1 | 100% |
| COc1ccc(-n2c(C)nn(Cc3ccccc3)c2=O)cc1 | -1% |
| C=CCCCNc1ccc(C(N)=O)c(F)c1 | 4% |
| Cc1nn2c(-c3ccc(-c4ccccc4)cc3)ccnc2c1Br | 9% |
| O=S(=O)(c1c[nH]c2cccc(F)c12)N1CC[C@]2(CCOC2)C1 | -16% |
| Cc1cc2nc(C)c(=O)n(CCC(=O)NCCCN(C)C3CCCCC3)c2cc1C | 11% |
| CCC1(CC)CCC(NC(=O)[C@@H]2CCCCC(=O)N2)CC1 | -14% |
| O=C(c1ccc[n+]([O-])c1)N(Cc1ccccc1)Cc1ccccc1 | 1% |
| Nc1ccc(Cc2nnc3n2CCC3)cc1 | 8% |
| Cn1c(N2CCN(c3ccccn3)CC2)nc2c1c(=O)n(Cc1ccc(Cl)cc1)c(=O)n2C | 8% |
| CC(C)Cc1cc(C(=O)OC2CCCCCC2)[nH]n1 | 10% |
| CN1CCCN(C(=O)[C@@H]2Cc3ccccc3C(=O)O2)CC1 | -14% |
| Cc1cccc(CNC(=O)NC2CCOC2c2ccc(Cl)cc2)n1 (centres undefined) | -15% |
| CCOC(=O)C1CCN(C(=O)Nc2ccc(NC(=O)N3CCC(C(=O)OCC)CC3)cc2)CC1 | 4% |
